This sample is rich in variants without activity.
B1: TPR 5TU (parent)
chain: GGAUCUUCUCGAUCUAACAAAAAAGACAAAUCUGCCACAAAGCUUGAGAGCAUCUUCGGAUGCAGAGGCGGCAGCCUUCGGUGGCGCGAUAGCGCCAACGUUCUCAACUAUGACACGCAAAACGCGUGCUCCGUUGAAUGGAGUUUAUCAUG

Variants of: B1
Test: polymerase ribozyme fitness, log enrichment relative to wild type (log ratio); higher = more active; in vitro selection for triplet polymerase activity
Procedure, shortened: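 Frozen incubation at −7 °C formed the core of a single, triplicate in vitro selection round applied to PCR-built, transcribed mutant libraries of each subunit of a heterodimeric triplet polymerase ribozyme. Extended constructs were gel-excised, captured with streptavidin beads and amplified by RT-PCR, and input and output libraries were Illumina-sequenced with a filter of ≥10 input reads and ≥1 read per output. Fitness is the logarithm of genotype enrichment relative to wild-type enrichment, with inverse-variance-weighted replicate averaging, and the logarithm is base 2.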

GGAUCUUCUCGAUGAAAUAAAAAAUAGAAAUCUGCCACAAAGCUUGAGAGCAUCUUCGGAUACAGAGGCGGCAGCCUUCGGUGGGGCGAUAGCGCCAACGUUCUCAACUAUGACACGCAAAACGCGUGCUCCGUUGACUGGAGUUUAUCAUG and GGAUCUUCUCGAUGUAACAAAAAAGACAAAUCUGCCACAAAGCUUGAGAGCAUCAUCGGAAGCAGAGGCGUCAGUCUUCGGUGGUGCGAUAGCGCCAACGUUCUCAACUAUGACACGCAAAACGCGUGCUCCGUUGAAUGGAGUUUAUCAUG cannot be ordered by “polymerase ribozyme fitness (log ratio)” value: at most -4.2 for the first, at most -4.2 for the second.

GGAUCUUCUCGAUGGAAGAAAAAAGACAAAUCUGCCACAAAGCUUGAGAGCAUCGUCGGAUGCAGAGACGGCAGCCUUCGGUGGCGCGAUAGCGCCAACGUUCUCAACUAUGACACGCAAAACGCGUGCUCCGUUGAAUGGAGUUUAUCAUG and GGAUCUUCUCGAUGUAACAAAAAAGACAAAUCUGCCACAAAGCUUGAGAGCAUCUUCGGAUGCAGAGGCGGCAGCCUUCGGUGGCGCGAUAGCGCCAACGUUCUCAACUAUCACACGCAAAACGCGUGCUCCGGUGAAUGGAGUUUAUCAUG cannot be ordered by “polymerase ribozyme fitness (log ratio)” value: at most -4.2 for the first, at most -4.2 for the second.

GGAUCUUCUCGAUGUAACAAAAAAGACAAAUCCGCCCCAAAGCUUGAGCGCAUCUUCGAAUGCAGAGGCGGCAGCCUUCGGUGGUGCGAUCGCGCCAACGUUCUCAACUAUGACACGCAAAACGCGUGCUCCGUUGAAUGGAGUUUAUCAUG and GGAUCUUCUCGAUGUAACAAAAAAGACAAAUCUGCCACAAAGCUUGAGAGCAUCUUCGGAUGCAGAGGCGGCAGCCUUCGGUGGCCCGAUAGCGCCAACGUUCUCAACUAUGACACGCAAAACGCGUGCUCCGUUGAAUGGAGUUUAUCAUG cannot be ordered by “polymerase ribozyme fitness (log ratio)” value: at most -4.2 for the first, at most -4.2 for the second.

GGAUCUUCUCGAUGUAACAAAAAAGACAAAUCUGCCACAAAGCUAGAGAGCUUCUUCGGAUGCAGAGCCGGCAGCCUUCGGUGGCGCGAUAGCGCAAACGUUCUCAACUAUGACACGCAAAACGCCUGCUCCGUUGAAUGGAGUUUAUCAUG and GGAUCUUCUCGAUGUAACAAAAAAGACAAAUCUGCCACAAAGCUUGAGAGCAUCGUUGGAUGCAGAGGCGGCAGCCUUCGGUGGCCCGAUAGCGCCAACGUUCUCAACUAUGACACGCAAAACGGGUGCUCCGUUGUAUGGAGUUUAUCAUG cannot be ordered by “polymerase ribozyme fitness (log ratio)” value: at most -4.2 for the first, at most -4.2 for the second.

GGAUCUUCUCGAUGUAACAAAAAAGACAAAACUGCCACAAAGCUUGAGAGCAUCUUCGGAUACAGAGGCGGCCGCCUUCGGUGGCGCGACAGUGCCAACGUUCUCAACUAUGACACGCAAAACGCGUGCUCCGUUGAAUGGAGUUUAUCAUG and GGAUCUUCUCGAUGUAACAAAAAAGACAAAUCCGCCACAAAGCUUGAGAGCAUCUUCGGAUGCAGGGGCGGCAGCCUUCGGUGGCGCGAUAGCACCAACGUUCUCAACUAUGACACGCAAAACGCGUGCUCCGUUGAAUGGAGUUUAUCAUG cannot be ordered by “polymerase ribozyme fitness (log ratio)” value: at most -4.2 for the first, at most -4.2 for the second.

GGAUCUUCUCGAUGUAACAAAAAAGACAAAUCUGCCACAAAGCUUGAGAGCAUCUUCGGAUGCAGAGGCGGCAGCCUUCGGUAGCGCGAUAGCGCCAACGUUCUCAACUAUGACACGCAAAACGCGUGCUCCGUUGAAUCGAGUUUAUCAUG and GGAUCUUCUCGAUGUAACAAAAAAGACAAAUCUGCCACAAAGCAUGAGCGCAUCUUCGGAUGCAGAGGCGGCAGGCUUCGGUGGCGCGAUAGGGCCAACGUUCUCAACUAUGACACGCAAAACGCGUGCUCCGUUGAAUGGAGUUUAUCAUG cannot be ordered by “polymerase ribozyme fitness (log ratio)” value: at most -4.2 for the first, at most -4.2 for the second.

First: GGAUCUUCUCGAUGUAACAAAAAAGACAAAUCCGCCACAAAGCUUGAGAGCAUCUUCGGAUGCAGAGGCGGCAGCCUUCGGUGUCGCGAUAGCACCAACGUUCUCAACUAUGACACGCAAAACGCGUGCUCCGUUGAAUGGAGUUUAUCAUG
Second: GGAUCUUCUCGAUGUAACAAAAAAGACAAAACUGCCACACAGCUUGAGAGGAUCUUCGGAUGCAGAGGCGGCAGCCUUCGGUUGCGCGAUAGCGCCAACGUUCUCAACUAUGACACGCAAAACGCGUGCUCCGUUGAAUGGAGUUUAUCAUG
The “polymerase ribozyme fitness (log ratio)” value of the first is higher: -4.16 for the first, at most -4.2 for the second.

GGAUCUUCUCGAUGUAACAAAAAAGACAAAUCUGCCACAAAGCUUGAGAGCAUCUUCGGAUGCAGAGGCGGCAGCCUUCGAUGGCGCGAUAGAGCCAACGUUCUCCACUAUGACAAGCAAAACGCGUGCUCCGUUGAAUGGAGUUUAUCAUG and GGAUCUUCUCGAUGUAACAAAAAAGACAAAUCUGCCACAAAGCGUGAGAGCAUCUUCGGAUGCAGAGGCGGCAGCCUUCGGUGGCGCGAUAGCGCCAACGUUCUCAACUAUGACACGCAAAACGCGUGCUCCGUUGAAUGGAGUUUAUCAUG cannot be ordered by “polymerase ribozyme fitness (log ratio)” value: at most -4.2 for the first, at most -4.2 for the second.

GGAUCUUCUCGAUGUAACAAAAAAGACAAAUCUGCCACAAAGCUUGAGAGCAUCUUCGGAUGCAGAGGCGGCAGCCUUCGGUGGCGCUAUAGCGCCAACGUUCUCAACUAUGACACGCAAAACGCGUGCUCCGUUGAAUAGAGUUUAUCAUG and GGAUCUUCUCGAUGUAACAAAAAAGACAAAACUGCCACAAAGCAUGAGAGCAUCUUCGGAUGCAGAGGCGGCUGCCUUCGGUGGCGCGAUAGCGCUAACGUUCUCAACUAUGACACGCAAAACGCGUGCUCAGUUGAAUGGAGUUUAUCAUG cannot be ordered by “polymerase ribozyme fitness (log ratio)” value: at most -4.2 for the first, at most -4.2 for the second.

Going from GGAUCUUCUCGAUGUAACAAAAAAGACAAAUCUGCCACAAAGCUUGAGAGCAUCUUCGGAUGCAGAGGCGGCAGCCUUCGGUGACGCGAUAGCGCCAACGUUCUCAACUAUGACACGCAAAACGCGUGCUCCGUUGAAUGGAGUUUAUCAUG to GGAUCUUCUCGAUGUAACAAAAAAGACAAAUCUGCCACAAAGCUUGAGAGCAUCAUCGGAUGCAGAGGCGGCAGCCUUCGGUGACGCGAUAGCGCCAACGUUCUCAACUAUGACACGCAAAACGCGUGCUCCGUUGAAUGAAGUUUAUCAUG, the “polymerase ribozyme fitness (log ratio)” value falls from -2.16 to -3.7.

First: GGAUCUUCUCGAUGUAACAAAAAAGACAAAUCUGCCACAAAGCUUGAGAGCAUCUUCGGAUGCAGAGGCGGCACCCUUCGGUGGCGAGAUAGCGCCAACGUUCUCAACUAUGAUACGCAUAACGGGGGCUCCGUUGAAUGGAGUUUAUCAUG
Second: GGAUCUUCUCGAUGGAACCAACAAGACAAAUCUGCCACAAGGCUUGAGAGCAUCUUCCGAUGCAGAGGCGGCAGCCUUCGGUGGCGCGAUAGUGCCAACGUUCUCAACUAUGACACGCAAAACGCGUGCUCCGUUGAAUGGAGUUUAUCAUG
The “polymerase ribozyme fitness (log ratio)” value of the first is lower: at most -4.2 for the first, -3.91 for the second.

GGAUCUUCUCGAUGUAACAAAAAAGACAAAACUGCCACAAAGCUUGAGAGCAUCUUCGGAUGCAGAGGCAGCAGGCUUCGGUGGCGCGAUAGCCCCAACGUUAUCAACUAUGACACGCAAAAUGCGUGCUCCGGUGAAUGGAGUUUAUCAUG and GGAUCUUCUCGAUGUAACAAAAAAGACAAAUCUGCCACAAAGCUUGAGAGCAUCUUCGGAUGCAGAGGCGGCAGCCUUCGGUGACGCGAUGGCGCCAACGUUCUCAACUAUGACACGCAAAACGCGGGCUCCGUUGAAUGGAGUUUAUCAUG cannot be ordered by “polymerase ribozyme fitness (log ratio)” value: at most -4.2 for the first, at most -4.2 for the second.

GGAUCUUCUCGAUGGAACAAAAAAGACAAAUCUGCCACAAAGCUUGAGAGCAUUUUCUGAUGCAGAGGCGGCAGCCUUCGGUGGCGGGAUAGCGCCAACGUUCUUAACUAUGACACGCAAAACGCGUGCUCCGUUGAAUGGAAUUUAUCAUG and GGAUCUUCUCGAUGUAACAAAAAAGACAAAUCUGCCACAAAGCUUGAGAGCAUCUUCGGAUGCAGAGGCGGCAGCCUUCGGUGCCGCGAUCGCGCCAACGUUCUCAACUAUGACACGCAAAACGCGUGCUCCGUUGAAUGGAGUUUAUCAUG cannot be ordered by “polymerase ribozyme fitness (log ratio)” value: at most -4.2 for the first, at most -4.2 for the second.

GGAUCUUCUCGAUGUAACAAAAAAGACAAAUCUGCCACAAAGCGUGAGAGCAUCUUCGGAUGGAGAGGCGGCAGCCUUCGGUGGCGCGAUAGCGCCAACGUUCUCAACUACGCCACGCAAAACGCGUGCUCCGUCGAAUGGAGUUUAUCAUG and GGAUCUUCUCGAUGUAACAAAAAAGACAAAUCUGCCACAAAGCUAGAGAGCAUCUUCGGAUGCAGAGGCGGCAGCCUUCGGUGGCGCGAUAGUGCCAACGUUCUCAACUAUGAUACGCAAAACGCGAGCUCCGUUGAAUGGAGUUUAUCAUG cannot be ordered by “polymerase ribozyme fitness (log ratio)” value: at most -4.2 for the first, at most -4.2 for the second.

First: GGAUCUUCUCGAUGUAACAAAAAAGACAAAUCAGCCACAAAGCUUGAGAGCAUCUUCGGAUGCAGAGGCGACAGCCUUCGGUGGGGCGAUAGCGCCAACGUUCUCAACUAUGACACGCAAAACGCGUGCUCCGUUGACUUGAGUUUAUCAUG
Second: GGAUCUUCUCGAUGUAACAAAAAAGACAAAUCUGCCACAAAGCUUGAGAGCAUCUUCGGAUGCAGAGGCGGCAGCCUUCGGUGGCGCGAUAGCACCAACGUUCUCAACUAUGACACGCAAAACGCGUGCUCCGUUGAAUGGAGUUUAUCAUG
The “polymerase ribozyme fitness (log ratio)” value of the first is lower: at most -4.2 for the first, -2.61 for the second.

First: GGAUCUUCUCGAUGUAACAAAAAAGACAAAUCUGCCACAAAGCUUGAGAGCAUCUUCGGAUGCAGAGACGGCAGCCUUAGGUGGCGCGAUAGUGCCAACGUUCUCAACUAUGACACGCAAAACGCGUGCUCCGUUAAAUGGAGUUUAUCAUG
Second: GGAUCUUCUCGAUGUAACAAAAAAGACAAAUCUGCCACAAAGCUUGAGAGCAUCAUCGGAUGCAGAGGCGGCAGCCUUCGGUGGCGCGAUAGCGCUAACGUUCUCAACUAUGACACGCAAAACGCGUGCUCCGUUGAAUGGAGUUUAUCAUG
The “polymerase ribozyme fitness (log ratio)” value of the first is lower: at most -4.2 for the first, -3.27 for the second.

GGAUCUUCUCGAUGUAACAAAAAAGACAAAUCUGCCACAAAGCGUGAGAGCAUCUUCGGAUGCAGAGGCGGCAGUCUUCGGUGGAGCGACAGCGCGAACGUUCUCAACUAUGACACGCAAAACGCGUGCUCCGUUGAUUGGAGUUUAUCAUG and GGAUCUUCUCGAUGAAACAAAAAAGACAAAUCUGCCACAAAGCUUGAGAGCAUUUUCGGAUGCAGAGGAGGCAGCCUUCGGUGGCGCGAUAGCGCCAAAGUUCUCAACUAUGACACGCAAAACGCGUGCUCCGUUGAAUGGAGUUUAACAUG cannot be ordered by “polymerase ribozyme fitness (log ratio)” value: at most -4.2 for the first, at most -4.2 for the second.

GGAUCUUCUCGAUGUAACAAAAAAGACAAAUCUGCCACAAAGCUUGAGAGCAUCGUCAGAUGCAGGGGCGGCAGCCUUCGGUGGCGCGUUAUCGCCAACGUUCUCAACUAUGAACCGCAAAACGCGUGCUCCGUUGAAUGGAGUUUAUCAUG and GGAUCUUCUCGAUGAAACAAAAAAGACACAUCUGCCACAAAGCUUGCGAGCAUUUUCGGAUGCAGAGGCGGCAGCCUUCGGGGGCGCGAUAGCGCUAACGUUCUCAACUAUGAUACGCAAAACGCGUGCUCCGUUGAAUGGAGUGUAUCAUG cannot be ordered by “polymerase ribozyme fitness (log ratio)” value: at most -4.2 for the first, at most -4.2 for the second.

First: GGAUCUUCUCGAUGUAACAAAAAAGACAAAUCUGCCACAAAGCUUGAGAGCAGCUUUGGAUGCAGAGGCGGCAGCCUUCGGUGGCGCGAUGGCGCCAACGUUCUCAACUAUGACACGCAAAUCGCGUGCUCCGUUGAAUGGCGAUUAUCAUG
Second: GGAUCUUCUCGAUGUAACAAAAAAGACAAAUCUGCCACAAAGCUUGAGAGCAUCUUCGGAUGCAGAGGCGGCAGCCUUCGGUGGCGCGAUAGCACCAACGUUCUCCACUAUGACACGCAAAACGCGUGCUCCGUUAAAUGGAGUUUAUCAUG
The “polymerase ribozyme fitness (log ratio)” value of the first is lower: at most -4.2 for the first, -3.64 for the second.

Source: the RNAGym collection of RNA variant scans (doi:10.1073/pnas.2313332121)
